From the supplement of paper PMC3334620 come the findings set out here.

The full ranking holds about 33,000 sequences; the median of “E-score (-0.5 to 0.5)” is about -0.012, and the highest 2% start at about 0.29. This is one part of the list.

The experiment has as its target T1, Ybr033w (UniProt P38073).
T1 sequence: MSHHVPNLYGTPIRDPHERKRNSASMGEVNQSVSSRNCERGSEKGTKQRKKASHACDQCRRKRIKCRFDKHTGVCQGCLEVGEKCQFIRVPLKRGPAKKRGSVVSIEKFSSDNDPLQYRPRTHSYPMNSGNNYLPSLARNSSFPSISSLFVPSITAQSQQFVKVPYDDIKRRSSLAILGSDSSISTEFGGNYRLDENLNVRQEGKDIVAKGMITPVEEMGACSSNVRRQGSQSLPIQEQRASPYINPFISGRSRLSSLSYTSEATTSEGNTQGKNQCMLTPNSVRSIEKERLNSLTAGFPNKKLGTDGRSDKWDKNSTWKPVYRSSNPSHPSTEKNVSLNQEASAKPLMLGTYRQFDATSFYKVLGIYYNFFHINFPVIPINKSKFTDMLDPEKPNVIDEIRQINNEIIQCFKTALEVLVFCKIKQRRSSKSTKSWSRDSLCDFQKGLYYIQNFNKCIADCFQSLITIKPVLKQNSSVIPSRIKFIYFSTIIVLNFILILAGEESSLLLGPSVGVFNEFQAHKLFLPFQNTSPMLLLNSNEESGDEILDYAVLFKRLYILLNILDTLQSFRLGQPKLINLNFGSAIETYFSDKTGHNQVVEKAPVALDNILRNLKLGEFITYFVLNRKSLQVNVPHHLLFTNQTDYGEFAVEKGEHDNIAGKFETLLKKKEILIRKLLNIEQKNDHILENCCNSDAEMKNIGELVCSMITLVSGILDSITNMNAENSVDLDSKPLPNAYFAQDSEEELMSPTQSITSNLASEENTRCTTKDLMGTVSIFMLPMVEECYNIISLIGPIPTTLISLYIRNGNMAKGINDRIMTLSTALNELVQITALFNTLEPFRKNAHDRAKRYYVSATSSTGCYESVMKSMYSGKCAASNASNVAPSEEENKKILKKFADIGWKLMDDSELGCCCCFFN
In words: PBM E-score (8-mer binding enrichment) (E-score (-0.5 to 0.5)); higher = stronger / more preferred TF binding; most listed sequences are background and not binding sites. Particulars: protein concentration: 200 nM; construct: GST-full length. Put shortly:
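Masliner-normalised scans of fluorescent anti-GST signal were the basis for scoring. That signal came from GST-tagged yeast transcription factors applied at about 100-200 nM to double-stranded universal all-10-mer Agilent arrays on fresh or once-stripped slides. Each ungapped eight-base word, pooled with its reverse complement, received an E-score from the Universal PBM Analysis Suite.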
For ACCATCAC, the “PBM E-score” value worked out at 0.0848. In the case of GCGAACTA it was 0.00407; in that of AGCATTGC, -0.0135. In the case of CGACCGGC, the “PBM E-score” value was -0.116. With ACGTTTCA the figure was 0.0374. In the case of CGGCAAAG it was -0.15.

On to GGGTACAA, for which the “PBM E-score” value was 0.0163.

As for AGCCTGTA, the “PBM E-score” value is -0.0394.

As for GCGTAAGA, the “PBM E-score” value came out at 0.0377.

For AGACGTGC, the “PBM E-score” value is -0.0692. As to AACGGAGG, the “PBM E-score” value was -0.218. Consider AATAGGCG, for which the “PBM E-score” value amounted to 0.048.

Consider GACTACCC, for which the “PBM E-score” value was -0.0847. With AAAATCCA, the “PBM E-score” value amounted to 0.339. Consider CGCCTACC, for which the “PBM E-score” value was -0.167.

For AACTCTGT, the “PBM E-score” value was found to be 0.00059.

Turning to GTAACATA, the “PBM E-score” value was 0.155. Regarding CCACTATC, the “PBM E-score” value was determined as 0.0512. On to GTTTGCTA, for which the “PBM E-score” value came to 0.118. For GAACTTAA, the “PBM E-score” value amounted to 0.155. In the case of TTAACGAA, the “PBM E-score” value was determined as 0.296. As for AGGCACGC, the “PBM E-score” value is -0.155. In the case of GTATGACA it was 0.112; in that of ATGAGAGC, -0.194.

For the sequence ATCATTGA, the “PBM E-score” value turned out to be 0.237.

Take CTTCCGCC: the “PBM E-score” value is -0.0511. In the case of CATAGTAC it was 0.0737. With GGTTCCGA the figure was 0.019.

Consider GAACCCTC, for which the “PBM E-score” value is -0.236. Turning to CAGTTTCA, the “PBM E-score” value worked out at 0.0567. In the case of CGTCTATC it was -0.0447; in that of CGAACTAG, -0.0932. As for CTTGTAGA, the “PBM E-score” value was -0.145. Turning to GTACCCAC, the “PBM E-score” value is -0.116.

In the case of AGACCGCC, the “PBM E-score” value is -0.0316. With ATCACCAA the figure was 0.165; with CCCGGACG, -0.26; with ATCCCACC, -0.0372.

Turning to CCCAGAGG, the “PBM E-score” value was -0.313. Regarding CGCATTTA, the “PBM E-score” value is 0.228. ATCCGAAG: the “PBM E-score” value is 0.118.

For the sequence TTCCGCAA, the “PBM E-score” value worked out at 0.153. Turning to AGGCGCAA, the “PBM E-score” value was -0.0276. On to ATATCCCG, for which the “PBM E-score” value was determined as 0.202. Take CTCAGATA: the “PBM E-score” value was 0.131. Take AACTTCGA: the “PBM E-score” value worked out at 0.0183. With CAGGCGCA, the “PBM E-score” value was -0.136. As for AAGTATGT, the “PBM E-score” value was determined as 0.153. For CTTATTGC, the “PBM E-score” value is -0.19. As to AATAACAT, the “PBM E-score” value is 0.199. For AGAACGTG, the “PBM E-score” value came out at 0.0546.

In the case of CGGTGGGC, the “PBM E-score” value was -0.214. With CAACCTTG the figure was 0.0694; with TTGCGCAA, 0.158. Consider TAGGCGGA, for which the “PBM E-score” value was determined as 0.172. In the case of AGCAGTGC it was -0.092. With ACATCGAC the figure was -0.0961; with TAGGGTCA, -0.0821; with AATTTACT, 0.311. Regarding CTTCGACC, the “PBM E-score” value was -0.0409. As for AATTTGCC, the “PBM E-score” value was 0.0242. Take ATACCAAT: the “PBM E-score” value came to 0.201.

As for CAATGCCG, the “PBM E-score” value was -0.153. On to GATTAGCC, for which the “PBM E-score” value worked out at 0.0427.

As for AAATACGG, the “PBM E-score” value worked out at 0.0582.

With TATTCTCA, the “PBM E-score” value was determined as 0.0372.

Turning to CCCTAGTC, the “PBM E-score” value is -0.295. For AGGCTCTC, the “PBM E-score” value was -0.293. Regarding CTGACGCA, the “PBM E-score” value is -0.228. Take GAAGGCTC: the “PBM E-score” value is -0.0655. In the case of CCACCGTA it was -0.0489; in that of TCTTCGAA, -0.0382; in that of CTAAGAAC, 0.0257. For ATAAGAAC, the “PBM E-score” value is 0.178. Regarding CACATGAA, the “PBM E-score” value was -0.046. As to ACGAGTAG, the “PBM E-score” value worked out at 0.017. With CAGCACGG, the “PBM E-score” value stood at 0.0148. In the case of ATCAGCGG it was -0.089; in that of AACTTATA, 0.353.

As for GCAGTGAA, the “PBM E-score” value turned out to be 0.175. Turning to AACGGTGT, the “PBM E-score” value was -0.113. Take CACACATA: the “PBM E-score” value is 0.00689. In the case of CAGTACTC, the “PBM E-score” value turned out to be 0.0143. With CCGTGACC, the “PBM E-score” value was -0.197. With CTGTGCAA, the “PBM E-score” value was -0.019.

Regarding TACGTCAA, the “PBM E-score” value was 0.0316. For the sequence CCTGAGCG, the “PBM E-score” value is -0.121. As to AACTAATG, the “PBM E-score” value was found to be 0.29. As for AACCCAGA, the “PBM E-score” value worked out at 0.0447.

For the sequence ATTCCTTA, the “PBM E-score” value stood at 0.274.

On to ACCATTAA, for which the “PBM E-score” value is 0.28. With TGGTGTAA the figure was -0.0487; with AACTAAAA, 0.237; with AAACTACG, 0.0517.
